Experimental data reported in PubChem BioAssay AID686979 (National Center for Advancing Translational Sciences (NCATS), 2013).
Values joined by “and” are separate entries in the source; they are usually repeats but may differ in a detail not shown here. Equal values may be shown once. Hit rate of the full screen: of about 420,000 compounds, about 50,000 (12%) were called active. This list was built around the results that the source calls inconclusive (neither active nor inactive); the mix of calls is not that of the screen. The call rests on the fitted dose curve; in most records, active means well fitted inhibition curve with a large enough effect; inconclusive means small, poorly fitted or top-dose-only effect; inactive means flat fitted curve, though single readings scatter. A potency beside an inconclusive call is a rough fit, not a confirmed value.

Test: qHTS for Inhibitors of human tyrosyl-DNA phosphodiesterase 1 (TDP1): qHTS in cells in presence of CPT; further: nearly all actives have a fitted effect of over 55% in size
Details: chicken DT40 Tdp1-/-;hTDP1 cells + 20 nM CPT, ATP luminescence, 48 h; activity change, negative = growth inhibition: at 46.2 µM (top of the series)
Procedure, shortened: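 Cell growth measured by CellTiter-Glo luminescence after a minimum 48 h, 37 C compound exposure with 20 nM CPT in Tdp1-knockout DT40 cells stably expressing hTDP1, seeded 400/well; qHTS titration format.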
On the % scale 0 is the no-effect control and ±100 the full control effect; potency means the concentration at half of the fitted maximal effect; tags describe the fitted curve by direction and shape.

| Compound | Potency | activity change, negative = growth inhibition |
| --- | --- | --- |
| Cc1nn(-c2ccccc2)c2nc(N)c(C#N)c(-c3ccc(O)c(O)c3)c12 | inconclusive: 23.1 µM [inhibitor, single point] | – |
| Cc1cc(C(=O)N2CCCC(N3CCN(Cc4ccc5c(c4)OCO5)CC3)C2)n[nH]1 (configuration not stated) | inactive | – |
| c1ccc2c(c1)Sc1cnccc1N2CC1CO1 (configuration not stated) | active: 4.11 µM | – |
| CCOC(=O)Cc1csc(NC(=O)CCS(=O)(=O)Cc2ccccc2)n1 | inconclusive: 29.1 µM [inhibitor, single point] | – |
| Cc1cc(C)n2nc3nc(N4CCCCC4)nc(-c4ccco4)c3c2n1 | active: 14.6 µM | – |
| CCOC(=O)N1CCc2c(sc3c2c(=O)n(Cc2ccccc2)c(=O)n3Cc2cccc(Cl)c2)C1 | active: 10.3 µM | – |
| Cc1c(C(=O)NCc2cccs2)sc(=O)n1Cc1ccc(S(C)(=O)=O)cc1 | inconclusive: 20.6 µM [inhibitor, single point] | – |
| Cc1ccc(S(=O)(=O)c2cn(C)c3cc(N4CCN(c5ccccc5)CC4)c(F)cc3c2=O)cc1 | inconclusive: 3.66 µM [inhibitor, full curve] | – |
| CS(=O)(=O)N(Cc1ccc(C(=O)NN=C2CCCCCC2)cc1)c1ccccc1 | – | inconclusive: -37.5% [inhibitor] |
| c1ccc(-c2nc(-n3nc4ccccc4n3)nc3ccccc23)cc1 | inconclusive: 29.1 µM [inhibitor, single point] | – |
| COc1ccc(NC(=O)c2c(NCc3ccc(C)o3)sc3c2CCC(C)C3)cc1 (configuration not stated) | active: 23.1 µM | – |
| CCNc1nc(NCC)n2c(SCC(=O)Nc3cc(Cl)ccc3OC)nnc2n1 | inconclusive: 16.4 µM [inhibitor, single point] | – |
| C/C(=N\NC(=O)c1c(C)nc2ccccn12)c1ccc(C(C)(C)C)cc1 | active: 18.4 µM | – |
| CCOC(=O)CN(C(=O)CSc1nnc(CNc2ccc(F)cc2)n1CC)c1ccc(F)cc1 | inconclusive: 29.1 µM [inhibitor, single point] | – |
| O=C(N/N=C/c1ccc(Cl)cc1Cl)c1cccc(F)c1 | inconclusive: 35.5 µM [inhibitor, single point] | – |
| Cc1nn(CCCC(=O)NCc2ccccc2)c(=O)c2c1sc1ccccc12 | inconclusive: 23.1 µM [inhibitor, single point] | – |
| Cc1ccc(S(=O)(=O)N(CCCO)Cc2cc3c(C)ccc(C)c3[nH]c2=O)cc1 | inconclusive: 16.4 µM [inhibitor, partial curve, poor fit] | – |
| Cc1ccccc1NC(=O)c1ccccc1N(C)S(=O)(=O)c1ccccc1 | inactive | – |
| O=C(CS(=O)(=O)c1cn(Cc2ccc(F)cc2)c2ccccc12)N1CCOCC1 | inactive | – |
| CCOc1ccccc1NC(=O)C1CCN(S(=O)(=O)c2ccc(Br)cc2)CC1 | inconclusive: 20.6 µM [inhibitor, single point] | – |
| CN(C)c1ccc(/C=N/Nc2nncc3ccccc23)cc1 | inconclusive: 13 µM [inhibitor, partial curve, poor fit] | – |
| Cc1sc(=NC(=O)c2ccco2)n(C)c1-c1ccc(F)cc1 | inconclusive: 10.3 µM [inhibitor, partial curve] | – |
| CCC1C(=O)CC(c2ccco2)NC1c1ccco1 (configuration not stated) | inactive | – |
| Cc1ccc(NC(=O)CN(C)C(=O)Cc2coc3cc(C)c(C)cc23)cc1 | inconclusive: 29.1 µM [inhibitor, single point] | – |

| Compound | Potency | activity change, negative = growth inhibition |
| --- | --- | --- |
| Cc1nn(-c2ccccc2)nc1C(=O)Nc1nnc(C(F)(F)F)s1 | inconclusive: 29.1 µM [inhibitor, single point] | – |
| COc1ccc(CCNC(=O)CN2CCN(c3ccccc3Cl)CC2)cc1 | inactive | – |
| CCC(C)NC(=O)c1ccccc1NC(=O)C(C)N(c1ccccc1)S(C)(=O)=O (configuration not stated) | inactive | – |
| COc1ccc(CN(C)CCCn2cnc3c(OCc4ccccc4)ncnc32)cc1 | inconclusive: 18.4 µM [inhibitor, single point] | – |
| Cc1cccc(-n2c(-c3csc(C)c3)n[nH]c2=S)c1 | inconclusive: 35.5 µM [inhibitor, single point] | – |
| CCCCNC(=O)c1sc(=S)n(-c2ccccc2OC)c1N | inactive | – |
| COC(=O)c1cnn(-c2ccc(F)cc2F)c1/C=N/NC(N)=S | – | inconclusive: -32.2% [inhibitor] |
| COc1ccc(C(=O)CN2C3=NCCCN3c3ccccc32)cc1OC | active: 20.6 µM | – |
| COCCCNS(=O)(=O)c1ccc2[nH]c3c(c2c1)CCCCC3 | inactive | – |
| CS(=O)(=O)c1ccc(NS(=O)(=O)c2ccc(Cl)c(C(=O)NC3=NCCS3)c2)cc1 | inactive | – |
| Cc1ccc2nc3ccc(N4CCCCCCC4)nn3c(=O)c2c1 | inconclusive: 16.4 µM [inhibitor, single point] | – |
| CCCN1CCN(C(=O)CCNC(=O)Cn2cnc3ccccc3c2=O)CC1 | inactive | – |
| CCOc1ccc(NC2=C(Cl)C(=O)N(Cc3ccccc3)C2=O)cc1 | inconclusive: 29.1 µM [inhibitor, single point] | – |
| C[C@H]1CN([C@@H](C)CO)S(=O)(=O)c2ccc(Br)cc2O[C@H]1CN(C)C(=O)Cc1ccccc1 | inconclusive: 20.6 µM [inhibitor, single point] | – |
| Cc1ccccc1OCC(=O)NNC(=O)c1ccc(-n2cncn2)c([N+](=O)[O-])c1 | inconclusive: 23.1 µM [inhibitor, single point] | – |
| COc1ccccc1NC(=O)CS(=O)(=O)c1cn(CC(=O)N(C(C)C)C(C)C)c2ccccc12 | inconclusive: 13 µM [inhibitor, partial curve] | – |
| c1ccc(C2c3[nH]c4ccccc4c3CCN2Cc2cccn2-c2ccccn2)nc1 (configuration not stated) | inconclusive: 20.6 µM [inhibitor, single point] | – |
| COc1ccc(C2=CC(=O)CC(c3ccc(F)cc3)C2)cc1 (configuration not stated) | inconclusive: 29.1 µM [inhibitor, single point] | – |
| Cc1nc2sccn2c(=O)c1Br | inactive | – |
| O=C(c1ccc(C(F)(F)F)cc1)N1CCN(S(=O)(=O)c2ccc3c(c2)OCCCO3)CC1 | inconclusive: 16.4 µM [inhibitor, single point] | – |
| CC1CN(S(=O)(=O)c2cccc(C(=O)Nc3ccc(S(=O)(=O)NC4=NCCCCC4)cc3)c2)CC(C)O1 (configuration not stated) | inconclusive: 18.4 µM [inhibitor, partial curve] | – |
| O=C(CSc1ccc(Cl)cc1)c1ccco1 | active: 16.4 µM | – |
| Cc1nc(-c2ccccc2)nc2[nH]c(C(C)C)cc(=O)c12 | inconclusive: 23.1 µM [inhibitor, single point] | – |
| N#Cc1ccccc1C[C@H](N)C(=O)NC[C@H]1O[C@@H](n2ccc(N)nc2=O)[C@H](O)[C@@H]1O | inactive | – |

| Compound | Potency | activity change, negative = growth inhibition |
| --- | --- | --- |
| COc1ccc(-c2c[n+](CC(=O)c3ccccc3)c3n2CCCCC3)cc1 | active: 7.31 µM | – |
| CCCOc1ccc(/C(O)=C2/C(=O)C(=O)N(CCCn3ccnc3)C2c2cccnc2)cc1 (configuration not stated) | inactive | – |
| CCOc1cc(/C=N/Nc2ncnc(Cl)c2N)ccc1O | inactive | – |
| O=C(NC1CC(=O)N(c2ccccc2)C1)C1CCCC1 (configuration not stated) | inactive | – |
| Cc1cc(=O)oc2cc(OCC(=O)N3CCCc4ccccc43)ccc12 | inconclusive: 20.6 µM [inhibitor, partial curve, poor fit] | – |
| CC(C)C[C@H]1CN(CCCC[C@H]2CNC(=O)C(=O)N2CC2CCCCC2)C(=O)C(=O)N1Cc1ccccc1 | inconclusive: 18.4 µM [inhibitor, single point] | – |
| COc1ccccc1NC(=O)C(C)OC(=O)C(C)SCC(=O)Nc1ccc(C)cc1 (configuration not stated) | inconclusive: 23.1 µM [inhibitor, single point] | – |
| N#Cc1cccc2c1-c1ccccc1/C2=N/NC(N)=O | inconclusive: 23.1 µM [inhibitor, partial curve] | – |
| O=S1(=O)C[C@@H](N2CCC(Cc3ccccc3)CC2)[C@H](COCc2ccccc2)N1 | active: 18.4 µM | – |
| COc1ccc(NC(=O)Cn2c(=O)n(-c3ccc(Cl)cc3)c(=O)c3c(C)c(C(=O)N(C)C)sc32)cc1Cl | inconclusive: 25.9 µM [inhibitor, single point] | – |
| CC(C)(C)c1ccc(CN2C3=NCCCN3c3ccccc32)cc1 | active: 7.31 µM | – |
| COc1ccc(-c2cn[nH]c2-c2ccc(OCc3ccc(F)cc3)cc2O)cc1OC | active: 20.6 µM | – |
| CCc1nc(SCC(=O)N2CCc3cc(OC)c(OC)cc3C2)c(C#N)cc1C | inconclusive: 25.9 µM [inhibitor, single point] | – |
| CC(Sc1ncc(S(=O)(=O)c2ccc(C(C)C)cc2)c(N)n1)C(=O)Nc1ccccc1 (configuration not stated) | active: 16.4 µM | – |
| Cc1ccc(CC(=O)NNC(=O)c2ccncc2)cc1C | inconclusive: 9.2 µM [inhibitor, partial curve] | – |
| CCOC(=O)c1cc(-c2ccc(F)cc2)n(CCC(=O)Nc2ccccc2OC)c1C | inconclusive: 29.1 µM [inhibitor, single point] | – |
| N#Cc1ccc2c(=O)n(-c3ccccc3)sc2c1 | active: 3.26 µM | – |
| COc1cc(S(=O)(=O)N2CCN=C2c2ccccc2)ccc1F | inconclusive: 29.1 µM [inhibitor, single point] | – |
| COC(=O)c1ccc2nc(C)cc(Nc3ccc(O)cc3)c2c1 | active: 20.6 µM | – |
| CC(C)NC(=O)N1CCC2(CC1)CCN(C(=O)c1csnn1)CC2 | inactive | – |
| COc1ccccc1C(=O)C1CCCN(C(=O)CCC(=O)c2ccccc2)C1 (configuration not stated) | active: 10.3 µM | – |
| COc1ccccc1C(=O)NCCc1nc2ccccc2[nH]1 | inactive | – |
| CCOC(=O)c1c(C)nc(C)c(C(=O)OCC)c1-c1ccccc1 | inactive | – |
| COC(=O)c1cc(Cl)c(NC(=O)/C=C/c2ccc(Cl)cc2Cl)cc1OC | inactive and inconclusive: 20.6 µM [inhibitor, partial curve, poor fit] | – |
